In patent EP0531370B1, “INHIBITION OF VIRAL INFECTION” (priority 1990, dated 1991):

Test system: retroviral vector MPSV sup. neo
Assay: microbe, parasite or virus in culture
Settings: Moloney murine sarcoma virus, HL-60, in Mus musculus
Protocol: 24 hours before infection, confluent 90mm plates of NIH-3T3 cells were trypsinized and re-plated at a density of 1 x 10^5 cells per 90mm plate. At the time of infection, 150 recombinant virus colony forming units (previously titred by infection of NIH-3T3 cells and selection of G418-resistant colonies) and 8µg ml^-1 polybrene (1,5-dimethyl-1,5- diazaundecamethylene polymethobromide), were added to the NIH-3T3 cells. After 72 hours, the cells were trypsinized and 1/10th of all the cells which were originally infected were plated on 90mm plates in the presence of G418 at a final concentration of 1mg ml^-1. The colonies were counted after a further 7 days following fixing and staining with Giemsa-methanol stain. The control number of colonies, when neither inhibitors nor inhibitor analogues were used, was 201 ± 0, n = 2.
The above experiment was repeated, except that the retroviral vector MPSV sup. neo (see Example 4 below) was used to infect HL-60 cells. The effect of the poly(ADP-ribose) polymerase inhibitors 5-methyl nicotinamide and chlorthenoxazine was investigated.
MPSV^28 is a recombinant retroviral vector based on the murine myeloproliferative sarcoma virus and is constructed as shown in Figure 2. This vector carries the neomycin phosphotransferase ("neo") gene. This vector also contains the suppressor mutation supF. A suppressor mutant is a mutant which is able to overcome the effects of another. In tRNA suppressor systems, the primary mutation changes a codon in an mRNA so that the protein product is no longer functional; the secondary, suppressor mutation changes the anticodon of a tRNA, so that it recognizes the mutant codon instead of (or as well as) its original target codon. The amino acid that is now inserted restores protein function. The suppressors are named as nonsense or mis-sense, depending on the nature of the original mutation. SupF is in the former category.

[1] = read-out: % inhibition achieved
[2] = read-out: % of control colonies counted

Row | SMILES | inhibition at 500 µM [1] | inhibition at 2000 µM [1] | activity at 100 µM [2] | activity at 500 µM [2] | activity at 2000 µM [2] | inhibition at 25 µM [1] | activity at 25 µM [2]
1 | Cc1cncc(C(N)=O)c1 [5-methyl nicotinamide] | 30% | 35% | 183% | 70% | 65% |  | 
2 | O=C1NC(CCCl)Oc2ccccc21 (centres unmarked) [Chlorthenoxazine, chlorthenoxazine] |  |  | 49% |  |  | 36% | 64%
